The record followed here is the supplement of paper PMC10037445.

For assay [1], the system named is RAW-Dual. Briefly: NF-kB SEAP reporter activity, fold change vs agonist alone; cytotoxicity flag (confluency mask): not cytotoxic; higher = enhanced NF-kB activity. The method in brief: (§1)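 RAW-Dual macrophages (50,000 cells/well in DMEM, 384-well plates) received 50 nL of library stock by pin tool, then a PRR agonist 1 h later, and were kept at 37 °C, 5% CO2. After 20 hours, supernatant was read for IRF by QuantiLuc luminescence and for NF-κB by QuantiBlue absorbance at 620 nm. Reporter activity is fold change over agonist-alone wells. Cytotoxic wells had IncuCyte confluency below 70% of agonist controls in both mask sets.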

Assay [2] deals with RAW-Dual. The assay can be described thus: NF-kB SEAP reporter activity, fold change vs agonist alone; higher = enhanced NF-kB activity. The method in brief:
as §1

Assay [3] concerns RAW-Dual. Briefly: NF-kB SEAP reporter activity, fold change vs agonist alone; cytotoxicity flag (confluency mask): cytotoxic (confluency <70% of control); higher = enhanced NF-kB activity. The method in brief: as §1
Setting [4] is: agonist: ODN 1826 (TLR9) 0.5 ug/mL.
The mark [5] stands for this setting: agonist: Pam2CSK4 (TLR2/6) 0.1 ug/mL.
[6] abbreviates: agonist: Pam3CSK4 (TLR2/1) 0.1 ug/mL.
Setting [7] is: library stock concentration (final ~1000-fold dilution): 10 mM, cytotoxicity flag (confluency mask): not cytotoxic, agonist: Imiquimod (TLR7) […].
Where [8] appears, read: library stock concentration (final ~1000-fold dilution): 10 mM, cytotoxicity flag (confluency mask): not cytotoxic, agonist: MPLA (TLR4) […].
The mark [9] stands for this setting: library stock concentration (final ~1000-fold dilution): 10 mM, cytotoxicity flag (confluency mask): cytotoxic (confluency <70% of control), agonist: Imiquimod (TLR7) […].
The mark [10] stands for this setting: library stock concentration (final ~1000-fold dilution): 10 mM, cytotoxicity flag (confluency mask): cytotoxic (confluency <70% of control), agonist: MPLA (TLR4) […].

Whole data set: some 2,900 compounds, median “NF-kB SEAP reporter activity, fold change vs agonist alone” near 0.99, cut for the highest 2% near 2.6. The list shows a part of the results.

Turning to `CC1CN(CC(=O)Nc2ccc3c(c2)Cc2cccc(-c4cc(=O)cc(N5CCOCC5)o4)c2S3)CC(C)O1` (stereo unspecified) (library stock concentration (final ~1000-fold dilution): 10 mM), the “NF-kB SEAP reporter activity” value is 5.33 in assay [1] (agonist: LPS (TLR4) 0.1 ug/mL), 0.922 in assay [1] (setting [4]), 1.36 in assay [1] (setting [5]) and 1.99 in assay [1] (setting [6]).
For `CC1CN(CC(=O)Nc2ccc3c(c2)Cc2cccc(-c4cc(=O)cc(N5CCOCC5)o4)c2S3)CC(C)O1` (stereo unspecified), the “NF-kB SEAP reporter activity” value in assay [2] (setting [7]) was determined as 1.54; in assay [2] (setting [8]), 2.82.
As to `CC1(C)CN(C(=O)c2ccc(-c3cccc4nc(NC(=O)C5CC5)nn34)cc2)C1` (library stock concentration (final ~1000-fold dilution): 10 mM), the “NF-kB SEAP reporter activity” value in assay [1] (agonist: LPS (TLR4) 0.1 ug/mL) worked out at 0.769; in assay [1] (setting [4]) it was 1.1; in assay [1] (setting [5]) it was 1.01; in assay [1] (setting [6]) it was 1.04.
On to `CC1(C)CN(C(=O)c2ccc(-c3cccc4nc(NC(=O)C5CC5)nn34)cc2)C1`, for which the entries for the “NF-kB SEAP reporter activity” value in assay [2] (setting [7]) and in assay [2] (setting [8]) were 0.961 and 0.977, respectively.
As for `Clc1ccc(C2(c3ccc(-c4cn[nH]c4)cc3)CCNCC2)cc1`, the “NF-kB SEAP reporter activity” value in assay [2] (setting [9]) was determined as 2.21; in assay [2] (setting [10]) it was 0.649.
As to `Clc1ccc(C2(c3ccc(-c4cn[nH]c4)cc3)CCNCC2)cc1` (library stock concentration (final ~1000-fold dilution): 10 mM), the “NF-kB SEAP reporter activity” value came to 0.443 in assay [3] (agonist: LPS (TLR4) 0.1 ug/mL), 0.2 in assay [3] (setting [4]), 0.426 in assay [3] (setting [5]) and 0.645 in assay [3] (setting [6]).
In the case of `NC1(Cc2ccc(Cl)cc2)CCN(c2ncnc3[nH]ccc23)CC1` (library stock concentration (final ~1000-fold dilution): 10 mM), the “NF-kB SEAP reporter activity” value in assay [1] (agonist: LPS (TLR4) 0.1 ug/mL) was found to be 0.427; in assay [1] (setting [4]) it was 0.866; in assay [1] (setting [5]), 0.402; in assay [1] (setting [6]), 0.827.
As for `NC1(Cc2ccc(Cl)cc2)CCN(c2ncnc3[nH]ccc23)CC1`, the results for the “NF-kB SEAP reporter activity” value in assay [2] (setting [7]) and in assay [2] (setting [8]) were 0.772 and 0.885, respectively.
Regarding `Cc1cc(C(C)Nc2ccccc2)c2nc(N3CCOCC3)cc(=O)n2c1` (stereo unspecified) (library stock concentration (final ~1000-fold dilution): 10 mM), the “NF-kB SEAP reporter activity” value in assay [1] (agonist: LPS (TLR4) 0.1 ug/mL) amounted to 1.35; in assay [1] (setting [4]), 0.605; in assay [1] (setting [5]) it was 0.633; in assay [1] (setting [6]) it was 0.734.
In the case of `Cc1cc(C(C)Nc2ccccc2)c2nc(N3CCOCC3)cc(=O)n2c1` (stereo unspecified), the “NF-kB SEAP reporter activity” value in assay [2] (setting [7]) is 0.511; in assay [2] (setting [8]), 1.36.
Take `O=C1OC(COc2ccccc2[N+](=O)[O-])CC1Cc1ccccc1` (stereo unspecified) (library stock concentration (final ~1000-fold dilution): 10 mM): the “NF-kB SEAP reporter activity” value in assay [1] (agonist: LPS (TLR4) 0.1 ug/mL) amounted to 1.08; in assay [1] (setting [4]), 0.937; in assay [1] (setting [5]) it was 0.938; in assay [1] (setting [6]) it was 1.48.
Turning to `O=C1OC(COc2ccccc2[N+](=O)[O-])CC1Cc1ccccc1` (stereo unspecified), the “NF-kB SEAP reporter activity” value in assay [2] (setting [7]) came out at 0.819; in assay [2] (setting [8]), 1.09.
The corresponding values for `COc1ccc(-c2ccc3c(N4CCOCC4C)nc(N4CCOCC4C)nc3n2)cc1CO` (stereo unspecified) are 1.11 and 1.53.
In the case of `COc1ccc(-c2ccc3c(N4CCOCC4C)nc(N4CCOCC4C)nc3n2)cc1CO` (stereo unspecified) (library stock concentration (final ~1000-fold dilution): 10 mM), the “NF-kB SEAP reporter activity” value in assay [1] (agonist: LPS (TLR4) 0.1 ug/mL) is 1.62; in assay [1] (setting [4]), 1.12; in assay [1] (setting [5]), 0.372; in assay [1] (setting [6]), 0.555.
For `Clc1ccc2nsnc2c1NC1=NCCN1` (library stock concentration (final ~1000-fold dilution): 10 mM) the same measures were 1.16, 0.953, 0.991 and 1.14.
On to `Clc1ccc2nsnc2c1NC1=NCCN1`, for which the “NF-kB SEAP reporter activity” value in assay [2] (setting [7]) was determined as 0.918; in assay [2] (setting [8]) it was 0.985.
For `Cc1cc(Nc2cc(N3CCN(C)CC3)nc(Sc3ccc(NC(=O)C4CC4)cc3)n2)n[nH]1` the same measures were 0.255 and 0.315.
Regarding `Cc1cc(Nc2cc(N3CCN(C)CC3)nc(Sc3ccc(NC(=O)C4CC4)cc3)n2)n[nH]1` (library stock concentration (final ~1000-fold dilution): 10 mM), the “NF-kB SEAP reporter activity” value in assay [1] (agonist: LPS (TLR4) 0.1 ug/mL) worked out at 0.3; in assay [1] (setting [4]) it was 0.204; in assay [1] (setting [5]), 0.0965; in assay [1] (setting [6]), 0.226.
As for `O=C1c2ccc(O)cc2C(=O)c2ccc(O)cc21`, the “NF-kB SEAP reporter activity” value in assay [2] (setting [8]) worked out at 1.26.
In the case of `O=C1c2ccc(O)cc2C(=O)c2ccc(O)cc21` (library stock concentration (final ~1000-fold dilution): 10 mM), the “NF-kB SEAP reporter activity” value in assay [1] (agonist: LPS (TLR4) 0.1 ug/mL) was 1.38; in assay [1] (setting [4]) it was 1.04; in assay [1] (setting [5]), 1.32; in assay [1] (setting [6]), 1.16.
Take `CC(C)c1c2cc(-c3ccnc(NC4CCC(NC5CCOCC5)CC4)n3)ccc2nn1C` (stereo unspecified): the “NF-kB SEAP reporter activity” value in assay [2] (setting [9]) was 0.216; in assay [2] (setting [10]), 0.235.
For `CC(C)c1c2cc(-c3ccnc(NC4CCC(NC5CCOCC5)CC4)n3)ccc2nn1C` (stereo unspecified) (library stock concentration (final ~1000-fold dilution): 10 mM), the “NF-kB SEAP reporter activity” value came out at 0.18 in assay [3] (agonist: LPS (TLR4) 0.1 ug/mL), 0.223 in assay [3] (setting [4]), 0.0677 in assay [3] (setting [5]) and 0.139 in assay [3] (setting [6]).
Turning to `CC(=O)Nc1nnc(S(N)(=O)=O)s1`, the “NF-kB SEAP reporter activity” value came out at 0.977 in assay [2] (setting [7]) and 1.03 in assay [2] (setting [8]).
As to `CC(=O)Nc1nnc(S(N)(=O)=O)s1` (library stock concentration (final ~1000-fold dilution): 10 mM), the “NF-kB SEAP reporter activity” value was found to be 1.1 in assay [1] (agonist: LPS (TLR4) 0.1 ug/mL), 1.07 in assay [1] (setting [4]), 1 in assay [1] (setting [5]) and 1.14 in assay [1] (setting [6]).
The corresponding values for `Nc1nc(OCc2cc(Br)cs2)c2[nH]cnc2n1` (library stock concentration (final ~1000-fold dilution): 10 mM) are 1.44, 1.14, 0.645 and 0.628.
Regarding `Nc1nc(OCc2cc(Br)cs2)c2[nH]cnc2n1`, the “NF-kB SEAP reporter activity” value in assay [2] (setting [7]) worked out at 0.918; in assay [2] (setting [8]) it was 1.25.
For the compound `N#Cc1ccc2ncnc(NCCc3ccccc3)c2c1` (library stock concentration (final ~1000-fold dilution): 10 mM), the “NF-kB SEAP reporter activity” value in assay [1] (agonist: LPS (TLR4) 0.1 ug/mL) came to 2.76.
As to `O=[N+]([O-])c1ccc(Nc2nc(N3CCOCC3)nc(N3CCOCC3)n2)cc1`, the “NF-kB SEAP reporter activity” value is 1.09 in assay [2] (setting [7]) and 1.35 in assay [2] (setting [8]).
Regarding `O=[N+]([O-])c1ccc(Nc2nc(N3CCOCC3)nc(N3CCOCC3)n2)cc1` (library stock concentration (final ~1000-fold dilution): 10 mM), the “NF-kB SEAP reporter activity” value in assay [1] (agonist: LPS (TLR4) 0.1 ug/mL) was determined as 1.17; in assay [1] (setting [4]), 0.863; in assay [1] (setting [5]), 0.888; in assay [1] (setting [6]), 0.701.
For `O=C1O[C@H]([C@@H](O)CO)C([O-])=C1O.[Na+]` (library stock concentration (final ~1000-fold dilution): 10 mM water) the same measures were 1.18, 1.33, 1.16 and 1.22.
As to `O=C1O[C@H]([C@@H](O)CO)C([O-])=C1O.[Na+]`, the “NF-kB SEAP reporter activity” value in assay [2] (library stock concentration (final ~1000-fold dilution): 10 mM water, cytotoxicity flag (confluency mask): not cytotoxic, agonist: Imiquimod (TLR7) […]) is 0.939; in assay [2] (library stock concentration (final ~1000-fold dilution): 10 mM water, cytotoxicity flag (confluency mask): not cytotoxic, agonist: MPLA (TLR4) […]) it was 1.05.
In the case of `Cc1ccc(S(=O)(=O)Nc2nc3ccccc3nc2Nc2ccc3nsnc3c2)cc1` (library stock concentration (final ~1000-fold dilution): 2 mM), the “NF-kB SEAP reporter activity” value in assay [1] (agonist: LPS (TLR4) 0.1 ug/mL) was 1.3; in assay [1] (setting [4]) it was 0.936; in assay [1] (setting [5]), 0.709; in assay [1] (setting [6]) it was 1.08.
`Cc1ccc(S(=O)(=O)Nc2nc3ccccc3nc2Nc2ccc3nsnc3c2)cc1`: the “NF-kB SEAP reporter activity” value in assay [2] (library stock concentration (final ~1000-fold dilution): 2 mM, cytotoxicity flag (confluency mask): not cytotoxic, agonist: Imiquimod (TLR7) […]) was found to be 0.936; in assay [2] (library stock concentration (final ~1000-fold dilution): 2 mM, cytotoxicity flag (confluency mask): not cytotoxic, agonist: MPLA (TLR4) […]) it was 1.02.
On to `Cn1c(=O)cc(N2CCCC(N)C2)n(Cc2cc(F)ccc2C#N)c1=O.O=C(O)CCC(=O)O` (stereo unspecified) (library stock concentration (final ~1000-fold dilution): 10 mM), for which the “NF-kB SEAP reporter activity” value was 1.1 in assay [1] (agonist: LPS (TLR4) 0.1 ug/mL), 0.953 in assay [1] (setting [4]), 1.04 in assay [1] (setting [5]) and 1.06 in assay [1] (setting [6]).
In the case of `Cn1c(=O)cc(N2CCCC(N)C2)n(Cc2cc(F)ccc2C#N)c1=O.O=C(O)CCC(=O)O` (stereo unspecified), the “NF-kB SEAP reporter activity” value in assay [2] (setting [8]) was determined as 1.09.
